# Variants at the floor of the assay are shown more often than the library holds them.
# B1: tRNA (parent)
# chain: CUCUCGGUAGCCAAGUUGGUUUAAGGCGCAAGACUUUAAUUUAUCACUACGAAAUCUUGAGAUCGGGCGUUCGACUCGCCCCCGGGAGAUUUUUUCCUCGAGCAA
# Variants of: B1
# Assay: nonsense suppression (GFP-seq) (ratio to wild type); higher = more function; SUP4oc tRNA, yeast GFP reporter sort-seq
# Method in brief: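 Yeast were grown in raffinose/galactose medium with 80 mg/L adenine, each strain bearing a genome-integrated ochre-suppressor tRNA variant from a ~3% random-mutation library, a galactose-driven GFP ochre reporter, and RFP. After sorting into GFP/RFP bins, every bin was sequenced on an Illumina platform at phred ≥30. The GFPSEQ value, a measure of nonsense suppression, is the weighted bin median GFP/RFP relative to the unmutated parent tRNA, using each variant's estimated cell share per bin as the weight. Only variants with ≥100 reads and ≥30 cells were included.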
row,Variant,nonsense suppression
1,U2G U4G C68A,≤ 0.026
2,U2G U4G U16G U63G,≤ 0.026
3,U2G U8A C75A,≤ 0.026
4,U2G U8C G69C U76A,≤ 0.026
5,U2G U16A C81G,≤ 0.026
6,U2G U16A G73A,≤ 0.026
7,U2G U16C U17G G66C G85C,≤ 0.026
8,U2G U16C U71G,≤ 0.026
9,U2G U16G G19A A24G U57G G88C,≤ 0.026
10,U2G U17A G18A U21A A74G,≤ 0.026
11,U2G U17C,≤ 0.026
12,U2G U17C C27U C77A,≤ 0.026
13,U2G U17C C34U,≤ 0.026
14,U2G U17G A23G C27G C34G C75A,≤ 0.026
15,U2G U20C C29A,≤ 0.026
16,U2G U21C A62C,≤ 0.026
17,U2G U21G,≤ 0.026
18,U2G U35A,≤ 0.026
19,U2G U35A C56G G88A,≤ 0.026
20,U2G U35C G78U C83U,≤ 0.026
21,U2G U35G G66A C82A C83G,≤ 0.026
22,U2G U35G U76G,≤ 0.026
23,U2G U55C,0.053
24,U2G U57A A62U,≤ 0.026

row,Variant,nonsense suppression
1,U2G U57A A74U,≤ 0.026
2,U2G U57A G85A,≤ 0.026
3,U2G U57C G78A C81U,≤ 0.026
4,U2G U58A G86A,≤ 0.026
5,U2G U58G C64A,≤ 0.026
6,U2G U58G G85A,≤ 0.026
7,U2G U63C G86A,≤ 0.026
8,U2G U70A,≤ 0.026
9,U2G U71A G86A A89U,≤ 0.026
10,U2G U76A G78C,≤ 0.026
11,C3A A9G A31C A60U C68U C82G,≤ 0.026
12,C3A A9G C29U U76G G88C,≤ 0.026
13,C3A A9G G10A,≤ 0.026
14,C3A A9G G78C,≤ 0.026
15,C3A A9G U22C C29G,≤ 0.026
16,C3A A9U U17C U20C G32A,≤ 0.026
17,C3A A13C,0.0261
18,C3A A13G C75G,≤ 0.026
19,C3A A13U,0.0379
20,C3A A13U G26C G32U C64G,≤ 0.026
21,C3A A14C A54C,≤ 0.026
22,C3A A14G A24G U63C C80G,≤ 0.026
23,C3A A14G A33C,≤ 0.026
24,C3A A14G C29A A33U C56U,≤ 0.026

row,Variant,nonsense suppression
1,C3A A23C C75G C77A,≤ 0.026
2,C3A A23C G26A U58A G78C,≤ 0.026
3,C3A A23G,≤ 0.026
4,C3A A23G A30G C56U G84A,≤ 0.026
5,C3A A24C U58C C72G,≤ 0.026
6,C3A A24G A31C U76A,≤ 0.026
7,C3A A24G A33G,≤ 0.026
8,C3A A30U,≤ 0.026
9,C3A A31G G85U,≤ 0.026
10,C3A A31G U76C G78U G86U,≤ 0.026
11,C3A A31U,≤ 0.026
12,C3A A33C C72G C82A,≤ 0.026
13,C3A A33C U57G,≤ 0.026
14,C3A A33G G86A,≤ 0.026
15,C3A A33U A87C,≤ 0.026
16,C3A A33U G73C,≤ 0.026
17,C3A A62C G65U,≤ 0.026
18,C3A A62G,≤ 0.026
19,C3A A87G,≤ 0.026
20,C3A A89C,≤ 0.026
21,C3A A89U,≤ 0.026
22,C3A C5G U21G A23G,≤ 0.026
23,C3A C5U U17A G66C,≤ 0.026
24,C3A C11G A23G C79U,≤ 0.026

row,Variant,nonsense suppression
1,C3A C11G G61C G65C A89C,≤ 0.026
2,C3A C11G U20A,≤ 0.026
3,C3A C11U G32A U58C A60C,≤ 0.026
4,C3A C12A A13G A60C,≤ 0.026
5,C3A C12A A30C G85A,≤ 0.026
6,C3A C12A A33G G66C,≤ 0.026
7,C3A C12U U16A U22G,≤ 0.026
8,C3A C27G U71G,≤ 0.026
9,C3A C29A A54U,≤ 0.026
10,C3A C29A U71C,≤ 0.026
11,C3A C29G C34A U71C,≤ 0.026
12,C3A C29U A87G,≤ 0.026
13,C3A C34G A54C U58G U63A,≤ 0.026
14,C3A C64G U76G,≤ 0.026
15,C3A C68G,≤ 0.026
16,C3A C72G,≤ 0.026
17,C3A C72U,≤ 0.026
18,C3A C75A,≤ 0.026
19,C3A C82G,≤ 0.026
20,C3A C83G,≤ 0.026
21,C3A C83U,≤ 0.026
22,C3A G6U A14G,≤ 0.026
23,C3A G7A A33U,≤ 0.026
24,C3A G7C G65C,≤ 0.026

row,Variant,nonsense suppression
1,C3A G7C U8A C11G,≤ 0.026
2,C3A G7U U35C C56A A87U,≤ 0.026
3,C3A G7U U35G,≤ 0.026
4,C3A G10C C12G,≤ 0.026
5,C3A G10C U22G A62U,≤ 0.026
6,C3A G10U G86C,≤ 0.026
7,C3A G15A,≤ 0.026
8,C3A G15A G78U,≤ 0.026
9,C3A G15U G25A,≤ 0.026
10,C3A G18A C34G G65A C81G,≤ 0.026
11,C3A G18A G73A C81G,≤ 0.026
12,C3A G18C G86A,≤ 0.026
13,C3A G18U,≤ 0.026
14,C3A G19A,≤ 0.026
15,C3A G19C A87C,≤ 0.026
16,C3A G25A U57C,≤ 0.026
17,C3A G25C A60C U76A,≤ 0.026
18,C3A G25C U63A,≤ 0.026
19,C3A G26A,≤ 0.026
20,C3A G26C,≤ 0.026
21,C3A G32A C72G,≤ 0.026
22,C3A G59C C68U,≤ 0.026
23,C3A G59U A87C,≤ 0.026
24,C3A G61C,≤ 0.026

row,Variant,nonsense suppression
1,C3A G66U,≤ 0.026
2,C3A G78A G86C A87G,≤ 0.026
3,C3A G78C,≤ 0.026
4,C3A G84U,≤ 0.026
5,C3A G85A,≤ 0.026
6,C3A G86A,≤ 0.026
7,C3A G88U,≤ 0.026
8,C3A U4A A23C,≤ 0.026
9,C3A U4A C34A G59C U76G,≤ 0.026
10,C3A U4C A30C C34U,≤ 0.026
11,C3A U4C U21G,≤ 0.026
12,C3A U4G G86A,≤ 0.026
13,C3A U8A A9U C81U,≤ 0.026
14,C3A U8A A14U A60G C77G,≤ 0.026
15,C3A U8A A23C,≤ 0.026
16,C3A U8C A24G,≤ 0.026
17,C3A U8G C79A,≤ 0.026
18,C3A U8G C82A,≤ 0.026
19,C3A U16G G59A,≤ 0.026
20,C3A U17C A62C C77A,≤ 0.026
21,C3A U20A G28A,≤ 0.026
22,C3A U20C,≤ 0.026
23,C3A U21C A31U A33C A54U U55C G84A,≤ 0.026
24,C3A U22A U71C,≤ 0.026

row,Variant,nonsense suppression
1,C3A U22C G65C C83U,≤ 0.026
2,C3A U22C U57G,≤ 0.026
3,C3A U35C G73A A89C,≤ 0.026
4,C3A U55A C80U,≤ 0.026
5,C3A U57A G67U,≤ 0.026
6,C3A U57C C68G,≤ 0.026
7,C3A U57G,≤ 0.026
8,C3A U57G C81U,≤ 0.026
9,C3A U57G U58C G59A U63C,≤ 0.026
10,C3A U63A,≤ 0.026
11,C3A U70A,≤ 0.026
12,C3A U70C,≤ 0.026
13,C3A U70G,≤ 0.026
14,C3A U71C A74G G84C,≤ 0.026
15,C3A U71C C75G,≤ 0.026
16,C3A U76G,≤ 0.026
17,C3G A9C,≤ 0.026
18,C3G A9C U21A A23U,≤ 0.026
19,C3G A9U C68U G88C,≤ 0.026
20,C3G A9U U20C G61C G85C,≤ 0.026
21,C3G A13U G18A G19C U20A G61U C80G,≤ 0.026
22,C3G A14G C81U,≤ 0.026
23,C3G A14G U55G C80U,≤ 0.026

# — the RNAGym collection of RNA variant scans (doi:10.1101/gad.245936.114)
